The values that follow come from the antibiotic and cytotoxicity screens of Wong et al. (2023).

The subject of one assay is HSkMC. Briefly: cytotoxicity call (relative viability < 0.9). The settings on record: 10 µM.
For another assay, the system named is HepG2. As to the kind of experiment: cytotoxicity call (relative viability < 0.9). The settings on record: 10 µM.
In a further assay the test system is S. aureus RN4220. Briefly: growth inhibition call (relative growth <= 0.2). The conditions noted are these: 50 µM.

This is one part of the list.

Take `CCOC(=O)[C@H]1C/C=C/C[C@H](C(=O)OCC)C(=O)O[C@H]2[C@@H](OC)O[C@H](CO)[C@@H](OC(=O)Nc3ccc4c(c3)OCO4)[C@@H]2OC1=O`: the cytotoxicity call in the assay on HSkMC and in the assay with HepG2 was “active” each time. In addition, in the assay on S. aureus RN4220, the growth inhibition call is “inactive”.
For the compound `COc1ccc(NC(=O)Nc2ccc3c(c2)CC(=O)N([C@H](C)CO)C[C@H](C)[C@H](CN(C)S(C)(=O)=O)O3)cc1`, the cytotoxicity call in the assay with HSkMC and with HepG2 was “inactive” throughout. The growth inhibition call with S. aureus RN4220 is “inactive”.
On to `C[C@@H]1CN([C@@H](C)CO)C(=O)c2cccc(NC(=O)C3CCOCC3)c2O[C@H]1CN(C)Cc1ccc(C(=O)O)cc1`, for which the cytotoxicity call in the assay with HSkMC and in the assay on HepG2 was “inactive” throughout. Besides, in the assay on S. aureus RN4220, the growth inhibition call was “inactive”.
As to `O=C(O)c1ccccc1Nc1cccc(C(F)(F)F)c1`, the cytotoxicity call with HSkMC and with HepG2 was “inactive” in each case. Moreover, in the assay with S. aureus RN4220, the growth inhibition call was “inactive”.
Take `COc1ccc(NC(=O)Nc2ccc3c(c2)C(=O)N([C@@H](C)CO)C[C@@H](C)[C@@H](CN(C)C(=O)Nc2cccc4ccccc24)OCCCC[C@H](C)O3)cc1`: the cytotoxicity call with HSkMC and in the assay on HepG2 was “inactive” in each case. Besides, the growth inhibition call in the assay with S. aureus RN4220 is “inactive”.
Regarding `C[C@@H]1CN([C@H](C)CO)C(=O)c2cccc(NS(=O)(=O)c3cn(C)cn3)c2O[C@H]1CN(C)C(=O)Nc1ccc2c(c1)OCO2`, the cytotoxicity call with HSkMC and with HepG2 was “inactive” in each case. Also, the growth inhibition call with S. aureus RN4220 is “inactive”.
For the compound `C[C@@H]1CN([C@H](C)CO)C(=O)c2c(c3ccccc3n2C)-c2ccccc2CO[C@@H]1CN(C)Cc1ccccc1C(F)(F)F`, the cytotoxicity call with HSkMC was “active”. The cytotoxicity call with HepG2 is “inactive”. The growth inhibition call with S. aureus RN4220 is “inactive”.
Take `C[C@H](CO)N1C[C@H](C)[C@@H](CN(C)Cc2ccc(C(F)(F)F)cc2)OCCCC[C@H](C)Oc2ccc(NC(=O)c3ccccc3)cc2C1=O`: the cytotoxicity call in the assay on HSkMC and in the assay on HepG2 was “inactive” each time. The growth inhibition call in the assay on S. aureus RN4220 is “inactive”.
Turning to `Cn1cnc(S(=O)(=O)N2C[C@@H](O)COC[C@H]3O[C@@H](CC(=O)NCc4ccc(F)cc4)CC[C@@H]32)c1`, the cytotoxicity call with HSkMC and in the assay with HepG2 was “inactive” in each case. The growth inhibition call in the assay with S. aureus RN4220 is “inactive”.
For the compound `COc1ccc(NC(=O)Nc2ccc3c(c2)C(=O)N([C@@H](C)CO)C[C@H](C)[C@H](CN(C)S(=O)(=O)c2ccc(C)cc2)OCCCC[C@@H](C)O3)cc1`, the cytotoxicity call in the assay with HSkMC and in the assay with HepG2 was “inactive” throughout. In the assay with S. aureus RN4220, the growth inhibition call was “inactive”.
With `C[C@@H]1CN([C@H](C)CO)C(=O)Cc2cc(NS(=O)(=O)c3ccc(F)cc3)ccc2O[C@@H]1CN(C)Cc1ccncc1`, the cytotoxicity call in the assay on HSkMC and with HepG2 was “inactive” each time. Also, the growth inhibition call with S. aureus RN4220 is “inactive”.
As to `COc1ccc(NC(=O)N(C)C[C@H]2Oc3ccc(NC(=O)CCCCCC(=O)Nc4ccccc4N)cc3C(=O)N([C@@H](C)CO)C[C@@H]2C)cc1`, the cytotoxicity call in the assay on HSkMC and in the assay on HepG2 was “inactive” each time. The growth inhibition call with S. aureus RN4220 is “inactive”.
As for `Cc1noc(C)c1NC(=O)N(C)C[C@H]1Oc2ccc(NC(=O)Cn3cnnn3)cc2CC(=O)N([C@@H](C)CO)C[C@H]1C`, the cytotoxicity call in the assay on HSkMC and with HepG2 was “inactive” throughout. The growth inhibition call in the assay on S. aureus RN4220 is “inactive”.
On to `C[C@@H]1CN([C@H](C)CO)C(=O)c2cc(NS(=O)(=O)c3cccs3)ccc2O[C@@H](C)CCCCO[C@@H]1CN(C)C(=O)C1CCCCC1`, for which the cytotoxicity call in the assay on HSkMC and in the assay on HepG2 was “inactive” throughout. Also, in the assay with S. aureus RN4220, the growth inhibition call is “inactive”.
In the case of `C[C@@H]1CN([C@H](C)CO)C(=O)c2cc(C#Cc3ccccc3)cnc2O[C@H]1CN(C)S(=O)(=O)c1ccccc1F`, the cytotoxicity call in the assay on HSkMC and in the assay on HepG2 was “inactive” each time. For the same compound, the growth inhibition call with S. aureus RN4220 was “inactive”.
Regarding `COc1ccc(S(=O)(=O)Nc2ccc3c(c2)C(=O)N([C@@H](C)CO)C[C@@H](C)[C@H](CN(C)C(=O)C2CCCCC2)OCCCC[C@@H](C)O3)cc1`, the cytotoxicity call with HSkMC and in the assay on HepG2 was “inactive” in each case. For the same compound, in the assay on S. aureus RN4220, the growth inhibition call was “inactive”.
Take `CC(C)NC(=O)N(C)C[C@@H]1Oc2ccc(NC(=O)Cc3ccccc3)cc2C(=O)N([C@H](C)CO)C[C@@H]1C`: the cytotoxicity call with HSkMC and in the assay with HepG2 was “inactive” in each case. The growth inhibition call in the assay with S. aureus RN4220 was “inactive”.
In the case of `C[C@H]1CN([C@@H](C)CO)C(=O)Cc2cc(NC(=O)Cc3ccccc3)ccc2O[C@H]1CN(C)Cc1ccc(Oc2ccccc2)cc1`, the cytotoxicity call with HSkMC was “inactive”. In addition, the cytotoxicity call in the assay with HepG2 is “active”. In addition, the growth inhibition call in the assay on S. aureus RN4220 was “inactive”.
`C[C@H](CO)N1C[C@H](C)[C@@H](CN(C)C(=O)Nc2cccc3ccccc23)Oc2ccc(NS(=O)(=O)c3ccc(Cl)cc3)cc2CC1=O`: the cytotoxicity call with HSkMC and in the assay with HepG2 was “inactive” throughout. In addition, the growth inhibition call with S. aureus RN4220 was “inactive”.
In the case of `C[C@@H]1CCCCO[C@H](CN(C)Cc2ccc(C(=O)Nc3ccccc3N)cc2)[C@@H](C)CN([C@@H](C)CO)C(=O)c2cc(NS(=O)(=O)c3ccc(Cl)cc3)ccc2O1`, the cytotoxicity call in the assay on HSkMC and in the assay with HepG2 was “inactive” throughout. Further, the growth inhibition call with S. aureus RN4220 is “inactive”.
For `NCC[C@@H]1CC[C@@H](NC(=O)Nc2ccc(F)cc2)[C@@H](CO)O1`, the cytotoxicity call with HSkMC and in the assay on HepG2 was “inactive” each time. Also, the growth inhibition call with S. aureus RN4220 was “inactive”.
As to `COc1ccc(S(=O)(=O)N(C)C[C@@H]2Oc3c(NS(=O)(=O)c4ccc(C)cc4)cccc3C(=O)N([C@H](C)CO)C[C@@H]2C)cc1`, the cytotoxicity call in the assay on HSkMC and in the assay on HepG2 was “inactive” each time. For the same compound, the growth inhibition call in the assay on S. aureus RN4220 was “inactive”.
Turning to `CN(C)CC(=O)N[C@@H]1CC[C@H](CCn2cc(CN(C)C)nn2)O[C@@H]1CO`, the cytotoxicity call in the assay on HSkMC and in the assay with HepG2 was “inactive” in each case. The growth inhibition call in the assay with S. aureus RN4220 is “inactive”.
With `COCC(=O)Nc1ccc2c(c1)C(=O)N(C)C[C@H](OC)[C@H](C)CN(C(=O)c1ccccc1F)[C@@H](C)CO2`, the cytotoxicity call in the assay with HSkMC and in the assay with HepG2 was “inactive” throughout. The growth inhibition call in the assay with S. aureus RN4220 is “inactive”.
With `C[C@H](CO)N1C[C@H](C)[C@@H](CN(C)Cc2ccccn2)Oc2cc(C#CCN(C)C)ccc2S1(=O)=O`, the cytotoxicity call with HSkMC and with HepG2 was “inactive” each time. In the assay on S. aureus RN4220, the growth inhibition call is “inactive”.
For the compound `Cc1noc(C)c1NC(=O)N(C)C[C@@H]1OCCCC[C@@H](C)Oc2ccc(NC(=O)Nc3ccccc3)cc2C(=O)N([C@H](C)CO)C[C@H]1C`, the cytotoxicity call in the assay with HSkMC and in the assay with HepG2 was “inactive” each time. For the same compound, in the assay with S. aureus RN4220, the growth inhibition call is “inactive”.
Turning to `O=C(Cc1ccncc1)NCC[C@H]1CC[C@@H](NC(=O)C2CCOCC2)[C@@H](CO)O1`, the cytotoxicity call in the assay on HSkMC (human skeletal muscle cells) and in the assay with HepG2 was “inactive” throughout. In the assay with S. aureus RN4220, the growth inhibition call is “inactive”.
As to `C[C@@H]1CCCCO[C@H](CN(C)S(=O)(=O)c2cn(C)cn2)[C@@H](C)CN([C@H](C)CO)C(=O)c2cc(NC(=O)Nc3cccc4ccccc34)ccc2O1`, the cytotoxicity call with HSkMC and in the assay on HepG2 was “inactive” in each case. For the same compound, the growth inhibition call in the assay with S. aureus RN4220 was “inactive”.
